Results taken from PMC6794377.
Where a chain is given by its changes, count along the chain named. Results are given in words; binding and its absence hold for the method and conditions named. For some of these results: Binding seen in cells or lysates may run through a third protein. Some binding calls cover weakened binding; strength is not graded here. For some of these results: Where a sequence is shown, tags or fusion partners need not be part of it.

Tests used:
[1] = biological target: T1, hThrRS-L-S453D with a C-terminal FLAG tag (human) (UniProt A2RTX5); test: co-IP; FLAG-tagged hThrRS-L or mutant expressed in HeLa cells; IP with anti-FLAG; endogenous partners detected by western blotting
T1 sequence: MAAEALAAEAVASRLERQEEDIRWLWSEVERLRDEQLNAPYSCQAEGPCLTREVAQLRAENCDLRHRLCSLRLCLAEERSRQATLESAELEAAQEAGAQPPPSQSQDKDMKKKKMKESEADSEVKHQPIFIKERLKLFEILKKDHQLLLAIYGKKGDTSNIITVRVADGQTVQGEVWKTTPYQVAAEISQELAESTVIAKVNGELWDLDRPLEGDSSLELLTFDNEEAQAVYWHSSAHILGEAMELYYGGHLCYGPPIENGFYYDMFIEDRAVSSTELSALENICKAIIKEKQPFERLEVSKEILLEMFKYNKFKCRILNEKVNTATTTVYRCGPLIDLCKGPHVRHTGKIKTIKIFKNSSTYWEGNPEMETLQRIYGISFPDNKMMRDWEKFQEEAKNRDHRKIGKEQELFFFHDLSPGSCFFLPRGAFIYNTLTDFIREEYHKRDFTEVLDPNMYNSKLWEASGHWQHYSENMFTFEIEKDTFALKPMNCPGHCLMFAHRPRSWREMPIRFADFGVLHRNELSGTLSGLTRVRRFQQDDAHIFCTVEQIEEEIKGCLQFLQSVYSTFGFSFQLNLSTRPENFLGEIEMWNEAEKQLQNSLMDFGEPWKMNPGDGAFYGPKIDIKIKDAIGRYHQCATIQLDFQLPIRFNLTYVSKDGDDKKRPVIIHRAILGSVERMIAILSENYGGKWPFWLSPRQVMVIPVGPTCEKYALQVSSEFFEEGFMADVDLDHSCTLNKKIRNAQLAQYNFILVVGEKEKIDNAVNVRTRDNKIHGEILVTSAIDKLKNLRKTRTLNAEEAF

[2] = biological target: T2, C-terminal FLAG-tagged human threonyl-tRNA synthetase-like protein (hThrRS-L-FLAG) (human) (UniProt A2RTX5); test: as above
T2 sequence: T1 sequence with D453S

[3] = biological target: T3, native hThrRS-L, endogenous in HEK293T (human (endogenous in HEK293T)) (UniProt A2RTX5); test: co-IP; native HEK293T cell lysate, IP with anti-hThrRS-L antibodies; western blotting
T3 sequence: T1 sequence with D453S

[4] = biological target: T3, native hThrRS-L, endogenous in HEK293T (human (endogenous in HEK293T)); test: SEC; HEK293T whole cell lysate on Superose-6, 50 mM Tris-HCl pH 7.5, 50 mM NaCl, 1 mM PMSF, 1 mM DTT; fractions immunoblotted

Measured: binding

B1: native p43 (AIMP1), endogenous in human cells (protein, UniProt Q12904-2 1-336)
chain: MLPAVAVSEPVVLRFMIFCRLLAKMANNDAVLKRLEQKGAEADQIIEYLKQQVSLLKEKAILQATLREEKKLRVENAKLKKEIEELKQELIQAEIQNGVKQIPFPSGTPLHANSMVSENVIQSTAVTTVSSGTKEQIKGGTGDEKKAKEKIEKKGEKKEKKQQSIAGSADSKPIDVSRLDLRIGCIITARKHPDADSLYVEEVDVGEIAPRTVVSGLVNHVPLEQMQNRMVILLCNLKPAKMRGVLSQAMVMCASSPEKIEILAPPNGSVPGDRITFDAFPGEPDKELNPKKKIWEQIQPDLHTNDECVATYKGVPFEVKGKGVCRAQTMSNSGIK
binds: [1] | [2] | [3]

B2: ArgRS, endogenous in human cells (enzyme, UniProt P54136 1-660)
chain: MDVLVSECSARLLQQEEEIKSLTAEIDRLKNCGCLGASPNLEQLQEENLKLKYRLNILRKSLQAERNKPTKNMINIISRLQEVFGHAIKAAYPDLENPPLLVTPSQQAKFGDYQCNSAMGISQMLKTKEQKVNPREIAENITKHLPDNECIEKVEIAGPGFINVHLRKDFVSEQLTSLLVNGVQLPALGENKKVIVDFSSPNIAKEMHVGHLRSTIIGESISRLFEFAGYDVLRLNHVGDWGTQFGMLIAHLQDKFPDYLTVSPPIGDLQVFYKESKKRFDTEEEFKKRAYQCVVLLQGKNPDITKAWKLICDVSRQELNKIYDALDVSLIERGESFYQDRMNDIVKEFEDRGFVQVDDGRKIVFVPGCSIPLTIVKSDGGYTYDTSDLAAIKQRLFEEKADMIIYVVDNGQSVHFQTIFAAAQMIGWYDPKVTRVFHAGFGVVLGEDKKKFKTRSGETVRLMDLLGEGLKRSMDKLKEKERDKVLTAEELNAAQTSVAYGCIKYADLSHNRLNDYIFSFDKMLDDRGNTAAYLLYAFTRIRSIARLANIDEEMLQKAARETKILLDHEKEWKLGRCILRFPEILQKILDDLFLHTLCDYIYELATAFTEFYDSCYCVEKDRQTGKILKVNMWRMLLCEAVAAVMAKGFDILGIKPVQRM
binds: all assays above
